# Assay results reported in paper PMC4336329 (PLoS ONE, 2015).
# In all, about 310,000 compounds went through this assay and about 2,200 (0.71%) showed an effect of 50% or more. Effects have a minus sign here. Some of the results follow.
# Biological target: human ether-à-go-go-related gene (hERG) potassium channel (human, UniProt Q12809)
# Assay: primary screen, population patch clamp on CHO cells stably expressing hERG
# human ether-à-go-go-related gene (hERG) potassium channel, sequence (Q12809 whole entry, looked up): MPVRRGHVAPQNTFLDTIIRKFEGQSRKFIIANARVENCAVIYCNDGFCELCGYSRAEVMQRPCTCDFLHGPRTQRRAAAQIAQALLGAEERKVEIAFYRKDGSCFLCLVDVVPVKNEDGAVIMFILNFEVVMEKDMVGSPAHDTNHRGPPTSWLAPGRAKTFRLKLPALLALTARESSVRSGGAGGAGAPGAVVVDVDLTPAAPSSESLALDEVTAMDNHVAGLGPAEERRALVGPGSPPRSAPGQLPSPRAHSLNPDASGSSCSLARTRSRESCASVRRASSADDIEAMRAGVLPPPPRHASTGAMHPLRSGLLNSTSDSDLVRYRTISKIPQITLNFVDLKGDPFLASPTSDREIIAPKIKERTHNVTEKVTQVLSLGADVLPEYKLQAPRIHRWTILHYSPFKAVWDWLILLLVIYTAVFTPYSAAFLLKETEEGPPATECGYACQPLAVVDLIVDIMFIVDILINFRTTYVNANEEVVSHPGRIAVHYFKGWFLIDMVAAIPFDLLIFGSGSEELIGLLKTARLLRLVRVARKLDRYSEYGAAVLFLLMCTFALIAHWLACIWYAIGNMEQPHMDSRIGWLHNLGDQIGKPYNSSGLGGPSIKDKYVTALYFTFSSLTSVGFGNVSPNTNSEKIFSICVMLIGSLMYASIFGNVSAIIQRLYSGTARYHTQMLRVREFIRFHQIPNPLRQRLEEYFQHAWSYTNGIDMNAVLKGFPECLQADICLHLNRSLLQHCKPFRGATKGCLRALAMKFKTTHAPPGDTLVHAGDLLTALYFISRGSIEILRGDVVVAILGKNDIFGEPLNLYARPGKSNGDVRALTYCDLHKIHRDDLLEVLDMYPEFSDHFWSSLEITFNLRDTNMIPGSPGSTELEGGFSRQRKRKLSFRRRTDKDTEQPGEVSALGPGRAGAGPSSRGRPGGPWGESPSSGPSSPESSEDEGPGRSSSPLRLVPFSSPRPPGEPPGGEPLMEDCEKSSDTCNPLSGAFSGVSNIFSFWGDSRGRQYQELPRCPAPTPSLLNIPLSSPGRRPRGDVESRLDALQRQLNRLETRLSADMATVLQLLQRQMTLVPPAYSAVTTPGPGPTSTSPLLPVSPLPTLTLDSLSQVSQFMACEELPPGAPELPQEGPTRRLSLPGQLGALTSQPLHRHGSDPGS
row,Compound,"hERG current change (%, negative = inhibition) at 1uM [%]"
1,CC(C)(C)NC(=O)NC(=O)COC(=O)Cc1c(Cl)cccc1Cl,10.1
2,COc1cccc(NC(=O)CN(C2=NC3CS(=O)(=O)CC3S2)c2cccc(C)c2)c1 (stereo not drawn),0.133
3,O=C(O)CCn1nc(-c2ccc(F)cc2)cc(Cc2ccccc2)c1=O,10.2
4,O=C(CNC(=O)c1ccco1)N/N=C/c1ccccc1[N+](=O)[O-],13.7
5,CCOC(=O)CC(NC(=O)c1ccc(C)cc1)c1ccc(OC)cc1 (stereo not drawn),6.79
6,Cc1cccc(N2CCN(CCCNC(=O)c3ccc(NC(=O)C4=CSCCO4)cc3)CC2C)c1 (stereo not drawn),11.3
7,Cc1cc(S(=O)(=O)N2CCOCC2)ccc1OCC(=O)N1CCCCC1,14.9
8,NC1=NC(=O)C(CC(=O)NCc2ccccc2)S1 (stereo not drawn),13.7
9,CCN=C1SC(CC(=O)NCC)C(=O)N1CC (stereo not drawn),-6.35
10,COc1ccc(NC(=S)N2CCCN(Cc3cc(C)ccc3C)C2)cc1,7.85
11,Cc1ccc2ncc([N+](=O)[O-])n2c1,6.16
12,COC(=O)c1ccccc1NC(=O)CSc1nnc(-c2ccncc2)o1,10.8
13,Cc1ccc(C(=O)NC2CCN(C(=O)N3CCOCC3)CC2)cc1,5.1
14,O=C(COC(=O)CCCC1=NS(=O)(=O)c2ccccc2N1)Nc1ccccc1,19.2
15,CCOC(=O)c1ccc(NC(=O)CC2C(=O)N(c3ccc(F)cc3)C(=O)N2CCC(C)C)cc1 (stereo not drawn),2.19
16,O=C1CC(Sc2nnnn2-c2ccccc2)C(=O)N1c1cccc(Cl)c1 (stereo not drawn),8.11
17,Cc1occc1-c1nnc(SCC(=O)Nc2ccccc2)n1C(C)c1ccccc1 (stereo not drawn),1.46
18,Cc1cc(NC(=O)NC(=O)c2cccc(OC(F)(F)C(F)F)c2)n[nH]1,5.74
19,CCCC(=O)Nc1ccc2c(c1)C(=O)N(CCC(=O)O)C2=O,3.16
20,O=C(CC1Nc2ccccc2NC1=O)NCCCN1CCCCCC1 (stereo not drawn),7.59
21,N#C/C(=C\c1c[nH]c2ccc(Br)cc12)c1ccccn1,21.1
22,CCc1ccccc1NC(=S)N(CCN1CCCCC1)Cc1ccco1,-5.08
23,Cc1ccc(NC(=S)NC(=O)c2ccc(F)cc2)cc1S(=O)(=O)Nc1ccccc1Cl,-3.96

row,Compound,"hERG current change (%, negative = inhibition) at 1uM [%]"
1,CC(C)(C)c1ccc(C(=O)NCCOc2ccccc2)cc1,8.32
2,CCc1cc(C(=O)Nc2ccccc2)cs1,-1.52
3,O=C(Nc1ccccc1F)Nc1cc(Cl)ccc1-n1cncn1,14.5
4,Cc1onc(-c2ccccc2)c1C(=O)NCCc1ccc(S(N)(=O)=O)cc1,10.5
5,Cc1ccccc1NC(=O)Cn1nc(C)c2ccccc2c1=O,10.9
6,COc1ccc2nc(SCC(=O)N(C)C3CCCCC3)[nH]c2c1,12.6
7,C/C(=N\NC(=O)Cc1cccc2ccccc12)c1ccncc1,2.97
8,CCn1nc(C)cc1C(=O)OCC(=O)c1ccc(Cl)cc1,7.13
9,COc1cc(OC)cc(C(=O)Oc2ccc(/C=N/Nc3nc4ccccc4s3)cc2OC)c1,0.482
10,COc1ccc(-c2[nH]ncc2CN(CCO)Cc2cccs2)c(F)c1,5.85
11,Cc1cccc(C(=O)NC2CCN(C(=S)NCc3ccco3)CC2)c1,-6.66
12,O=C(CCl)Nc1ccc2c(c1)OCO2,10.3
13,O=C(COc1ccc(S(=O)(=O)N2CCOCC2)cc1Cl)NCCN1CCOCC1,11.9
14,O=C(Nc1ccc(CN2CCS(=O)(=O)CC2)cc1)c1ccccc1,10.3
15,Cc1cc(C(=O)N/N=C/c2cn[nH]c2-c2ccccc2)cs1,1.1
16,Cc1ccc(NC(=O)C2COc3ccccc3O2)nc1 (stereo not drawn),10.5
17,Cc1nc2ccccc2n1CC(=O)N/N=C/c1cccnc1,8.32
18,O=C(NC(=S)NC1CCSC1=O)c1cccc([N+](=O)[O-])c1 (stereo not drawn),15.1
19,Cc1nc2ccccc2n1CCc1ccccc1,3.48
20,Cc1ccnc(N2CCC(C(=O)NCc3ccccc3F)CC2)n1,13.8
21,CC1(C)CC(=O)c2c(O)cc(OCC(=O)N3CCN(c4ccc(F)cc4)CC3)cc2O1,-7.25
22,CC1CCc2cc(F)ccc2N1C(=O)CCC(=O)O (stereo not drawn),6.02
